PubChem BioAssay AID504466 (National Center for Advancing Translational Sciences (NCATS), 2011)
Out of some 330,000 compounds screened, about 4,200 (1.3%) were called active. Inconclusive means that the source gave no clear call. Such entries were picked first, then a sample of the others. The call rests on the fitted dose curve; in most records, active means well fitted activation curve with a large enough effect; inconclusive means small, poorly fitted or top-dose-only effect; inactive means no such curve, though single readings can be large or run the other way. A potency beside an inconclusive call is a rough fit, not a confirmed value.

test: qHTS screen for small molecules that induce genotoxicity in human embryonic kidney (HEK293T) cells expressing luciferase-tagged ELG1; conditions: HEK293T ELG1-luciferase reporter, luminescence, 16 h; series mostly up to 46 µM; activity change, positive = activation: at the top concentration; further: nearly all actives have a fitted effect of over 60% in size; on activity change, positive = activation: % of control where 0% means no effect
Text: NIH Molecular Libraries Probe Production Network [MLPCN] NIH Chemical Genomics Center [NCGC] MLPCN Grant: 1 R03 MH092164-01 Assay Provider: Kyungjae Myung, NHGRI, NIH Keywords: MLPCN, qHTS, NCGC, genotoxicity, cancer Assay Overview: Cancer cells divide rapidly compared to normal cells in the body. During cell division, cancer cells need to duplicate their genome by DNA replication. The failure of genome duplication leads to cancer cells' death. Therefore, inhibitors of DNA replication could specifically kill cancer cells. Based on this concept, many chemotherapeutic agents were developed and have been used to treat cancer patients. However, there are a limited number of agents available in the clinical setting, and some of those that do exist have low efficacy and severe side effects. Therefore, if we can find the compounds that effectively block DNA replication either by directly damaging DNA or by inhibiting other cellular mechanisms, the options for cancer treatment will be broadened. With this in mind, we developed a quantitative high-throughput ELG1-luciferase reporter gene assay. Since the level of human ELG1 protein is enhanced in response to genetic stresses, increases in luciferase activity can be used to identify compounds that cause genetic stress.
Assay Protocol Summary: For genotoxicity screening, 2,000 cells in 5 uL/well were dispensed into white, solid-bottom 1536-well plates using a solenoid-based dispenser. Following transfer of 23 nL compound or DMSO vehicle by a pin tool, the plates were incubated 16 hr at 37 °C and 5% CO2. 5 ul ONE-Glo (Promega) was then added to each plate and following a 30 min incubation at room temperature, luciferase activity was quantified on a ViewLux CCD-based plate reader.
Potency means the concentration at half of the fitted maximal effect; tags describe the fitted curve by direction and shape.

| Compound | Potency | activity change, positive = activation |
| --- | --- | --- |
| CCN(CC)S(=O)(=O)c1cc(C(=O)NC2CCCCC2)ccc1C | inconclusive: 10.3 µM [activator, partial curve] | – |
| COc1ccc(S(=O)(=O)N2CCN(Cc3ccco3)CC2)cc1 | – | inactive: 0.146% |
| O=C(CSc1ccc2ccccc2n1)c1ccccc1 | inconclusive: 18.3 µM [activator, partial curve, poor fit] | – |
| O=C(Nc1ccc2c(c1)OCO2)c1noc2c1CCCCC2 | inconclusive: 0.184 µM [activator, full curve] | – |
| Cc1ccc(NC(=O)C2OCCc3ccccc32)cc1 (stereo not drawn) | – | inactive: 6.72% |
| CN1CCN(S(=O)(=O)c2ccc(C(=O)Nc3ccccc3)cc2)CC1 | inconclusive: 29.1 µM [activator, partial curve, poor fit] | – |
| Oc1ccc(-c2nccc(-c3ccc(F)cc3)n2)cc1 | inconclusive: 16.4 µM [activator, partial curve] | – |
| Cc1ccc2oc(C(=O)N3CCCCCC3)c(C)c2c1 | active: 18.3 µM | – |
| O=C(CSc1ccccc1)NCCc1ccccc1 | inconclusive: 20.6 µM [activator, partial curve, poor fit] | – |
| COc1cccc(C(=O)Nc2ccccc2N2CCOCC2)c1 | – | inactive: -3.88% |
| COc1ccc(/C=C2\SC(=O)N(CCc3nnc(N)s3)C2=O)cc1 | inconclusive: 2.59 µM [activator, full curve] | – |
| O=C(CN1C(=O)NC(Cc2ccccc2)C1=O)Nc1ccccc1 (stereo not drawn) | inconclusive: 29.1 µM [activator, partial curve, poor fit] | – |
| O=c1oc2ccccc2cc1-c1csc(Nc2nc3c(F)cccc3s2)n1 | – | inactive: 2.58% |
| Nc1ccc(C(=O)N/N=C/c2ccc(N3CCOCC3)s2)cc1 | – | inactive: -0.994% |
| COc1ccc(NS(=O)(=O)c2cn(C)cn2)c(OC)c1 | – | inactive: 1.6% |
| CC(=O)c1sc(NC(=O)COc2ccc(Cl)cc2C)nc1C | – | inactive: 4.56% |
| Clc1nssc1=Nc1ccc(Br)cc1 | – | inactive: -5.8% |
| COc1ccccc1C(=O)Nc1nnc(SCC(=O)NCc2ccco2)s1 | active: 2.31 µM | – |
| CC1CCN(C(=O)COC(=O)c2cc(=O)[nH]c3ccccc23)CC1 | inconclusive: 18.3 µM [activator, partial curve] | – |
| O=C(Nc1ccc(F)cc1F)c1cc2n(n1)C(C(F)(F)F)C1CCCCC1N2 (stereo not drawn) | inconclusive: 9.2 µM [activator, partial curve] | – |
| CCOC(=O)N/N=C/c1cc(C)n(-c2ccccc2)c1C | inconclusive: 20.6 µM [activator, partial curve, poor fit] | – |
| COc1ccc2cc(-c3csc(-c4cccnc4)n3)ccc2c1 | active: 12.6 µM | – |
| CCCc1nc2oc3ccccc3c(=O)c2c(=O)n1-c1ccccc1 | inconclusive: 20.6 µM [activator, partial curve, poor fit] | – |
| N/C(=N\OC(=O)c1ccco1)c1cccc(Br)c1 | active: 8.2 µM | – |
| Cc1c(C)c2ccc(OCC(=O)Nc3cccnc3)c(C)c2oc1=O | inconclusive: 5.8 µM [activator, partial curve, poor fit] | – |
| CCOC(=O)CSc1nc2ccc(C)cc2cc1C#N | active: 2.31 µM | – |

| Compound | Potency | activity change, positive = activation |
| --- | --- | --- |
| CCOC(=O)c1nnc2cc(-c3ccccc3)nn2c1C | inconclusive: 16.4 µM [activator, partial curve, poor fit] | – |
| O=C(CSc1ccccc1)Nc1ccc2c(c1)OCO2 | inconclusive: 20.6 µM [activator, partial curve] | – |
| CCCn1nnc(NC(=O)c2cc3ccccc3o2)n1 | active: 5.8 µM | – |
| Cc1cccc(C(=O)N[C@H](C(=O)Nc2nc3ccccc3[nH]2)C(C)C)c1 | inconclusive: 20.6 µM [activator, partial curve] | – |
| O=C1N=C(N2CCCCC2)SC1=C1CCCC1 | inconclusive: 20.6 µM [activator, single point] | – |
| COc1ccccc1NC(=O)COC(=O)CNC(=O)c1ccc(OC)c(OC)c1 | active: 18.4 µM | – |
| CC(C)COC(=O)c1ccc2c(c1O)C(=O)c1ccccc1C2=O | active: 1.3 µM | – |
| Cc1[nH]nc2c1C(c1cc(Br)cs1)C(C#N)=C(N)O2 (stereo not drawn) | – | inactive: 0.59% |
| O=C(CSCc1ccc(F)cc1)N1CCOCC1 | inconclusive: 15.8 µM [activator, single point] | – |
| O=C(CN1CCCc2ccccc21)N/N=C/c1c(O)ccc2ccccc12 | inconclusive: 20.6 µM [activator, partial curve, poor fit] | – |
| CC(=O)Nc1ccc(NC(=O)C(C)OC(=O)c2ccc(S(=O)(=O)N3CCCCC3)cc2)cc1 (stereo not drawn) | inconclusive: 29.1 µM [activator, single point] | – |
| O=C(CCCN1C(=O)NC2(CCCC2)C1=O)NCc1ccccc1 | – | inactive: 3.38% |
| COc1ccc(CNC(=O)C2CC(c3ccccc3[N+](=O)[O-])=NO2)cc1 (stereo not drawn) | – | inactive: 6.56% |
| CC(=O)Oc1ccc(Oc2ccc(-c3noc(C)n3)cc2)cc1 | active: 23.1 µM | – |
| Cc1ccn2cc(CSc3ccccc3)nc2c1 | active: 3.66 µM | – |
| CCC(=O)Nc1ccc2nc(C3CC3)n(Cc3ccccc3)c(=O)c2c1 | active: 8.2 µM | – |
| CC1CCN(C(=O)c2cc(Cl)ccc2NC(=O)c2ccco2)CC1 | – | inactive: -1.23% |
| Cc1ccc(NC(=O)Cc2ccc(Cl)cc2)cc1S(=O)(=O)N1CCCCCC1 | – | inactive: -5.3% |
| CCN(CC)CCOc1ccc(/C(=C(\Cl)c2ccccc2)c2ccccc2)cc1 | inconclusive: 20.6 µM [activator, single point] | – |
| Cc1cc(NC(=O)CSc2cn(CCNC(=O)c3ccc(Cl)cc3)c3ccccc23)no1 | – | inactive: -9.48% |
| O=C(NCCOc1ccccc1)c1ccccc1Cl | active: 4.61 µM | – |
| c1ccc(SCc2nc3ccccc3[nH]2)cc1 | inconclusive: 7.31 µM [activator, partial curve] | – |
| Brc1ccc2nc(N3CCCC3)sc2c1 | inconclusive: 2.06 µM [activator, full curve] | – |
| O=C1NCCN/C1=C\C(=O)c1ccc(Br)cc1 | active: 10.3 µM | – |
| Nc1nc(Br)c2c(F)cccc2c1-c1ccccc1 | – | inactive: -0.018% |
| Cc1ccc(/C=C2\SC(=O)N(CCC(=O)N3CCN(C)CC3)C2=O)cc1 | inconclusive: 20.6 µM [activator, partial curve, poor fit] | – |

| Compound | Potency | activity change, positive = activation |
| --- | --- | --- |
| CCOc1ccc2nc(NC(=O)NC3CCCCC3)sc2c1 | inconclusive: 18.3 µM [activator, partial curve, poor fit] | – |
| Cc1ccc(NC(=O)COC(=O)c2ccc(S(=O)(=O)N3CCCC3)cc2)cc1 | – | inactive: -1.97% |
| COC(=O)C1CCN(C(=O)c2ccc3nc(-c4cccc(OC)c4)oc3c2)CC1 | inconclusive: 1.83 µM [activator, partial curve] | – |
| Cc1cc(C(=O)Nc2nc(C)c(C(=O)N(C)C)s2)ccc1[N+](=O)[O-] | active: 2.59 µM | – |
| CC(=O)Nc1ccc(C(=O)OCCC(C)C)cc1 | inconclusive: 18.4 µM [activator, single point] | – |
| O=C1C=C(N(CCO)Cc2ccccc2)c2ccccc2C1=O | – | inactive: -9.15% |
| COc1ccccc1-c1cc(C(=O)NCc2ccco2)no1 | – | inactive: 8.65% |
| COc1ccc2c(c1)CCc1c(C(=O)NCc3cccnc3)noc1-2 | active: 20.6 µM | – |
| CN(CCC#N)c1ccc(/C=C(\C#N)c2ccccn2)cc1 | active: 0.651 µM | – |
| Cc1cc(C)n2cc(COc3ccc4ccccc4c3)nc2n1 | inconclusive: 5.8 µM [activator, partial curve] | – |
| CC(C)/C=C1\CC/C(=C\c2ccc(N(C)C)cc2)C1=O | active: 9.2 µM | – |
| c1ccc2c(N3CCCCCC3)nc(-c3ccncc3)nc2c1 | – | inactive: -17.5% |
| Cc1cc(=O)[nH]c2ccc(S(=O)(=O)Nc3ccccc3)cc12 | active: 23.1 µM | – |
| O=C(Nc1ccc(Br)cc1Cl)c1ccc(OCC2CCCO2)cc1 (stereo not drawn) | inconclusive: 23.1 µM [activator, partial curve, poor fit] | – |
| COc1ccc(C(=O)O/N=C(\N)c2ccccn2)cc1 | inconclusive: 0.1 µM [activator, full curve, poor fit] | – |
| CCc1ccc(-c2ccc3nnc(SC)n3n2)cc1 | inconclusive: 18.3 µM [activator, single point] | – |
| CC(C)CCNC(=O)c1ccc2c(Cl)c3c(nc2c1)CCC3 | inconclusive: 2.06 µM [activator, partial curve] | – |
| OCCNCCCCOc1ccc(OCc2ccccc2)cc1 | inconclusive: 10.3 µM [activator, partial curve] | – |
| CC(=O)Cc1nsc(NC(=O)c2ccc(-c3ccccc3Cl)o2)n1 | inconclusive: 20.6 µM [activator, partial curve, poor fit] | – |
| O=c1c2sc(-c3ccccc3)cc2nc2n1CCCCC2 | inconclusive: 2.06 µM [activator, full curve, poor fit] | – |
| O=C(CCn1cccc1)N1CCc2ccccc21 | inconclusive: 11.6 µM [activator, partial curve, poor fit] | – |
| CC(=O)Nc1cccc(/C(C)=N/NC(=O)c2ccc3c(c2)OCO3)c1 | inconclusive: 18.3 µM [activator, partial curve, poor fit] | – |
| O=C(Nc1cccc([N+](=O)[O-])c1)Nc1ccc2c(c1)OCCO2 | inconclusive: 2.91 µM [activator, partial curve, poor fit] | – |
| CC(C)(C)c1ccc(-c2noc(CCC(=O)Nc3cccnc3)n2)cc1 | inconclusive: 20.6 µM [activator, single point] | – |
| CS(=O)c1ccccc1-c1nc(-c2ccc(Cl)cc2)no1 (stereo not drawn) | inconclusive: 7.3 µM [activator, partial curve, poor fit] | – |
| c1ccc(-c2nc(-c3nccc4ccccc34)oc2-c2ccccc2)cc1 | inconclusive: 25.9 µM [activator, partial curve, poor fit] | – |
